In paper PMC12136788:
The other results are listed elsewhere or left out.

B1: chr5:113341905:113341906:-_ENSMUSG00000042249_ENSMUST00000065167|mus_hu|FALSE|FALSE (ssRNA)
RNA: GGGAGUUCUACAGUCCGACGAUCAAAACAACAGCCAAGUAUACCAUGAUGUUUAAUCCAACUGACUUUUCCUCUGGCCAUGCAGGCAACCGGGUGCAGACACAGCGGUAUCCUGUGUCUGGUCGCAGAAACACCUCCAUCACACAACAGAGGAUUGAGCAUCA
B2: chr3:176740097:176740098:-_ENSG00000177565_ENST00000430069|hu_mus|hu_hu_hu_mus_True|1_108 (ssRNA)
RNA: GGGAGUUCUACAGUCCGACGAUCUGUUUUUUACACCACAAAAGGAGGCACUUUCAGUAUCUGCAAAAGGUGUUUAGUCCUAAAACAUACUCACCUAGAGGAUAACUCAGGAAAACAAUCUGUUACACUCUAAGACCUUAGGAACAACAGAGGAUUGAGCAUCA
B3: 212115369_212118161_2648_CDS_ENSG00000143493_ENST00000366992|human|control|control (ssRNA)
RNA: GGGAGUUCUACAGUCCGACGAUCGUUCAACAGAAAUUGAGUACUGAAGUAAUCAUUAUGAGGUUCAACCCUUUGCUCCAUCUCAUUGGUCAUGUUGUCAAUGGGUAUCUUGUAGUCUUGUCCAGAUUUACUCUGCAGUGUGGACAACAGAGGAUUGAGCAUCA
B4: chrX:50293416:50293417:+_ENSMUSG00000025626_ENSMUST00000078944|mus_hu|FALSE|FALSE (ssRNA)
RNA: GGGAGUUCUACAGUCCGACGAUCUUUCUUUUUACUUUUAGGUGAUGAGGGCUCCAGUUCAUGUUCAUUAAAACUUUCUUCUAAAUCAGCUUCGGAGUUAUGUGCAGUUUUCUUGUGUUUUCGGCAAUAGACCAUGUAAAUUCCCAACAGAGGAUUGAGCAUCA
B5: chr7:75932113:75932114:+_ENSG00000106211_ENST00000248553|hu_hu|hu_hu_hu_mus_False|48_78 (ssRNA)
RNA: GGGAGUUCUACAGUCCGACGAUCCUGCGACCACUCAUCGGGCAACCGGGGCACCCCGAAGGCCUGGUCGAAGAGGCGGCUGUGUGCGUACCAGUCGUCCCGGAAUGGUUCCCAGCUCGGGCUCCGCAGCAGCGAGAAGGGCACCAACAGAGGAUUGAGCAUCA
B6: chr16:94690093:94690094:+_ENSMUSG00000040785_ENSMUST00000117648|mus_hu|mus_mus_mus_hu_True|1_78 (ssRNA)
RNA: GGGAGUUCUACAGUCCGACGAUCGGGCUGGGAUGACGGACACACAGCCUCGAUUCCGGUAAAAAAAAGUCUUAGUCGAUACUAAUUAAAAAGUGUUAAUGAUUUUUGAAAAUCAGAUUACAUCUAUAAAAGAUGAAAGCACUUCAACAGAGGAUUGAGCAUCA
B7: chr1:225611761:225611762:-_ENSG00000143815_ENST00000272163|hu_mus|hu_hu_hu_mus_True|1_88 (ssRNA)
RNA: GGGAGUUCUACAGUCCGACGAUCCCAGGCCAUCGGCCUCUGACCACUUCACCAUCGACAAACUUCCUACUUGGCAUUUUCUAAAAUUAGUCUGGCCGCGCUCCGGCGGGAACUCCAGCCACUCCAGGACAGUCACCCGCACAGCAACAGAGGAUUGAGCAUCA
B8: chr9:107755404:107755405:-_ENSMUSG00000032582_ENSMUST00000035201|mus_hu|FALSE|FALSE (ssRNA)
RNA: GGGAGUUCUACAGUCCGACGAUCCUCUAUAAUCCAUAGAAGUACCAUCUCCACCCCUAUAGUCCAUAGGUGGUCCUUCUCUAUCCCGAAAAUCCCCAGAAUGUAUGUCCCUACCCCUGAAGUCCAACUGUGAUGAAUCUCUGCCAACAGAGGAUUGAGCAUCA
B9: chr10:33190432:33190433:-_ENSG00000150093_ENST00000302278|hu_mus|hu_hu_hu_mus_True|8_48 (ssRNA)
RNA: GGGAGUUCUACAGUCCGACGAUCUACAUUUUCCAAACCUGCAUGUGAAUAAAACCCUGGCCACAGAGCCCCAAAACUACCCUACUGUGACUAUGGAGCUGCUGCUGUGAGCUUGGUGUUGCAAAAUUUUGCACGGGAGGAUUCCAACAGAGGAUUGAGCAUCA
B10: 32149854_32149974_91_5pUTR_ENSMUSG00000021893_ENSMUST00000022451|mouse|control|control (ssRNA)
RNA: GGGAGUUCUACAGUCCGACGAUCGGUGGAGUGGCAAAGUUUACUUUCGAGGGCGGCGGAAGAGAUGACGGAGCCCCACUACCUCAGACCCGCCCGGAGGACUGCGAGCUCCGAGCAGCCCGGGCUCGGAGCCCUCGCGGCCGCCAACAGAGGAUUGAGCAUCA
B11: chr1:60041781:60041782:+_ENSMUSG00000041040_ENSMUST00000036540|mus_hu|mus_mus_mus_hu_False|48_108 (ssRNA)
RNA: GGGAGUUCUACAGUCCGACGAUCAAGAGGAGUGAAUUAAAGUAAAUGCAGUAGUGGCAAAUUUUCUUUUAUUUUCCUUCACAAAAGAAAACCUCAGUAACCCAGUCCUAGUCUUGGACAUAGUGAAAGCUAUAAAUUCUGACUCAACAGAGGAUUGAGCAUCA
B12: chr9:110092072:110092073:+_ENSG00000119318_ENST00000416373|hu_hu|motif|central (ssRNA)
RNA: GGGAGUUCUACAGUCCGACGAUCCUGUAUUUAUCCCUGCCCUGUAUCCUAGAUCCCUCCCUCCCCACCCCCAACAAUCGGCGGCCUUAUACCAAGUAUUGUGGAUAUGAGCCCAAGUCAUCCCAGACAAUCCAGUGAACAAGUCAACAGAGGAUUGAGCAUCA
B13: 165728802_165738018_155_5pUTR_ENSG00000143183_ENST00000464650|human|control|control (ssRNA)
RNA: GGGAGUUCUACAGUCCGACGAUCGUUUCCUUCUUCUUUUCCAAUUUUUUACUCUGUUUUUCCACUUCUGCCUUCAGUCUCUUGUACUUGUCUGUCCUGUAAACCAGGACCCAGGUUAUGCCUUCGUCUCUGCACUCUCACCCGCAACAGAGGAUUGAGCAUCA
B14: chr11:77412602:77412603:-_ENSG00000048649_ENST00000308488|hu_mus|FALSE|FALSE (ssRNA)
RNA: GGGAGUUCUACAGUCCGACGAUCCUCACUCUUACUUCUGGGGGCCUUCUCUUCAACUUUCGUACUGCAGGGUUCUGUGGCAGACAAAGUGGGUUUUAAAGAGAGAUCCGUGGCUUUCUCAGAAGGUUCGAGAGGCAUGUCCAUCAACAGAGGAUUGAGCAUCA

molecular target: T1, UNK ZnF1-3 (human, UniProt Q9C0B0 31-174); assay: nsRBNS (natural sequence RNA bind-n-seq); RBNS binding buffer (assumed for nsRBNS): 25 mM Tris pH 7.5, 150 mM KCl, 3 mM MgCl2, 0.01% Triton X-100, 500 ug/ml BSA, 20 U/ml SUPERase-In, 4 C; UNK is unkempt and MSI1 is Musashi-1; names of the RNAs are library labels; protein concentration not given here; high values mean tight binding
T1 sequence: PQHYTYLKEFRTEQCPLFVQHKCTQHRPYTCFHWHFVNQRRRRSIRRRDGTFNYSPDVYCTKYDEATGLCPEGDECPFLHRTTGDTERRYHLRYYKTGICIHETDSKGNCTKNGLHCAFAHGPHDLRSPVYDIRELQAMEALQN

Binder | binding signal
B1 | 0.836 enrichment R
B2 | 0.923 enrichment R
B3 | 0.838 enrichment R
B4 | 0.511 enrichment R
B5 | 0.54 enrichment R
B6 | 1.23 enrichment R
B7 | 1.13 enrichment R
B8 | 0.997 enrichment R
B9 | 1.06 enrichment R
B10 | 1.34 enrichment R
B11 | 0.789 enrichment R
B12 | 2.72 enrichment R
B13 | 0.414 enrichment R
B14 | 1.18 enrichment R
